The text below walks through data of patent US20180015075A1, “METHODS AND COMPOSITIONS FOR TREATMENT OF VENOUS MALFORMATION” (Children's Hospital Medical Center, priority 2016, published 2018).

Structures can show the parent of a compound that is named as a salt. Where two headings read alike, the source gives them in different places.

Test [1] deals with HUVEC-TIE2-L914F. Conditions: for proliferation inhibition of HUVEC-TIE2-L914F relative to rapamycin: in vitro drug screening.
The subject of test [2] is HUVEC-TIE2-WT. The note with it: for Combination Index (CI) with rapamycin, WT: ABL kinase inhibitor 10 μM to 30 nM combined with rapamycin 10 nM.
The subject of test [3] is HUVEC-TIE2-WT. Nature of the test: cells. The note with it: Homo sapiens; for inhibition at 20 µM: read-out: Average proliferation Inhibition rate (%) WT; for IC50: read-out: IC50 WT.
For test [4], the system named is HUVEC-TIE2-L914F. The test is described as follows: cells. The note with it: Homo sapiens; for inhibition at 20 µM: read-out: Average proliferation Inhibition rate (%) L914F.
For test [5], the system named is HUVEC (non-transfected). The test is described as follows: cells. The note with it: Homo sapiens, read-out: Average proliferation Inhibition rate (%) HUVEC.
Test [6] deals with TIE2, c-ABL, AKT, PLCγ1, ERK phosphorylation in HUVEC-TIE2-L914F. The test is described as follows: Immunoblotting (Western blot) of treated cells. It counts as cell-based, human.
For test [7], the system named is HUVEC-TIE2-L914F. The test is described as follows: Apoptosis analysis (Annexin V flow cytometry). Type of test: cell-based, human.
Test [8] deals with HUVEC-TIE2-L914F. The test is described as follows: Cell cycle analysis. Type of test: cell-based, human. The note with it: 100 nM Ponatinib, 10 nM rapamycin or combination, 48 hours; DMSO control 56.29±4.06%.

In the case of `CNNCc1ccc(C(=O)NC(C)C)cc1.Cl` [Procarbazine hxdrochloride], in test [1] (20 uM), the “Average proliferation Inhibition rate (%) L914F” value worked out at 6.02%. Moreover, in test [2] (20 uM), the “Average proliferation Inhibition rate (%) WT” value is on record as −3.53%.

Turning to `CO[C@H]1C[C@@H]2CC[C@@H](C)[C@@](O)(O2)C(=O)C(=O)N2CCCC[C@H]2C(=O)O[C@H]([C@H](C)C[C@@H]2CC[C@@H](OCCO)[C@H](OC)C2)CC(=O)[C@H](C)/C=C(\C)[C@@H](O)[C@@H](OC)C(=O)[C@H](C)C[C@H](C)/C=C/C=C/C=C/1C` [Everolimus, 42-O-(2-Hydroxyethyl)-rapamycin], the “proliferation inhibition of HUVEC-TIE2-L914F relative to rapamycin” value in test [1] was “same effectiveness as rapamycin”. In addition, the inhibition at 20 µM came out at 28% in test [3] and 50.5% in test [4]. Moreover, in test [3], the IC50 is under 0.03 µM.

With `N.N.O=C([O-])C1(C(=O)[O-])CCC1.[Pt+2]` [Carboplatin], the “Average proliferation Inhibition rate (%) L914F” value in test [1] (20 uM) came out at 1.26%. Besides, the “Average proliferation Inhibition rate (%) WT” value in test [2] (20 uM) is reported as −3.94%.

As to `COc1cc(Nc2c(C#N)cnc3cc(OCCCN4CCN(C)CC4)c(OC)cc23)c(Cl)cc1Cl` [Bosutinib, 4-((2,4-Dichloro-5-methoxyphenyl)amino)-6-methoxy-7-(3-(4-methyl-1-piperazinyl)propoxy)3-quinolinecarbonitrile], the inhibition at 20 µM in test [3] came to 36.2%; in test [4], 57.6%. The results for the IC50 in test [3] and in test [4] (read-out: IC50 L914F) were 4.1 ± 0.68 µM and 3.54 ± 1.14 µM, respectively. The “Combination Index (CI) with rapamycin, WT” value in test [2] was found to be 1.72 ± 0.41.

In the case of `Cl.Nc1ccn([C@@H]2O[C@H](CO)[C@@H](O)[C@@H]2O)c(=O)n1` [Cytarabine hxdrochloride], the “Average proliferation Inhibition rate (%) L914F” value in test [1] (20 uM) worked out at 30.30%. In addition, in test [2] (20 uM), the “Average proliferation Inhibition rate (%) WT” value amounted to 27.99%.

Turning to “Dabrafenib mesylate [Dabrafenib-mesylate]”, the “Average proliferation Inhibition rate (%) L914F” value in test [1] (20 uM) came out at 40.95%. Besides, the IC50 in test [1] (read-out: IC50 L914F, 6 dilution doses from 10 μM to 30 nM) was over 10 µM; in test [2] (read-out: IC50 WT, 6 dilution doses from 10 μM to 30 nM) it was over 10 µM. The “Average proliferation Inhibition rate (%) WT” value in test [2] (20 uM) was −6.26%.

For `CO[C@H]1C[C@@H]2CC[C@@H](C)[C@@](O)(O2)C(=O)C(=O)N2CCCC[C@H]2C(=O)O[C@H]([C@H](C)C[C@@H]2CC[C@@H](OC(=O)C(C)(CO)CO)[C@H](OC)C2)CC(=O)[C@H](C)/C=C(\C)[C@@H](O)[C@@H](OC)C(=O)[C@H](C)C[C@H](C)/C=C/C=C/C=C/1C` [Temsirolimus, 42-[3-Hydroxy-2-(hydroxymethyl)-2-methylpropanoate]-rapamycin], the “proliferation inhibition of HUVEC-TIE2-L914F relative to rapamycin” value in test [1] is on record as “same effectiveness as rapamycin”. Moreover, in test [3], the inhibition at 20 µM is 31.5% and the IC50 was under 0.03 µM. Moreover, the inhibition at 20 µM in test [4] was found to be 58.3%.

For `O=C1[O][Pt]2([NH][C@@H]3CCCC[C@H]3[NH]2)[O]C1=O` [Oxaliplatin], the “Average proliferation Inhibition rate (%) L914F” value in test [1] (20 µM) is listed as 39.55%. For the same compound, the “Average proliferation Inhibition rate (%) WT” value in test [2] (20 µM) is recorded as 13.52%.

`Cn1c(CCCC(=O)O)nc2cc(N(CCCl)CCCl)ccc21` [Bendamustine hydrochloride]: the inhibition at 20 µM in test [5] was 3.19%; in test [3], -0.61%; in test [4] it was 2.12%.

As for Bleomycin sulfate, the “Average proliferation Inhibition rate (%) L914F” value in test [1] (20 µM) turned out to be 49.04%. Also, the “Average proliferation Inhibition rate (%) WT” value in test [2] (20 µM) amounted to 29.04%.

With `N.N.[Cl][Pt][Cl]` [Cisplatin], the “Average proliferation Inhibition rate (%) L914F” value in test [1] (20 uM) is reported as 1.15%. The “Average proliferation Inhibition rate (%) WT” value in test [2] (20 uM) is −6.87%.

On to `Cc1cn(-c2cc(NC(=O)c3ccc(C)c(Nc4nccc(-c5cccnc5)n4)c3)cc(C(F)(F)F)c2)cn1` [Nilotinib, 4-Methyl-N-[3-(4-methyl-1H-imidazol-1-yl)-5-(trifluoromethyl)phenyl]-3-[[4-(3-pyridinyl)-2-pyrimidinyl]amino]-benzamide], for which the inhibition at 20 µM in test [3] is -9.36%; in test [4], 13.1%. Besides, the IC50 in test [3] came out at 4.98 ± 0.9 µM; in test [4] (read-out: IC50 L914F) it was 3.61 ± 0.03 µM. Besides, the “Combination Index (CI) with rapamycin, WT” value in test [2] worked out at 0.58 ± 0.15.

For `Cc1ccc(C(=O)Nc2ccc(CN3CCN(C)CC3)c(C(F)(F)F)c2)cc1C#Cc1cnc2cccnn12` [Ponatinib, 3-(2-imidazo[1,2-b]pyridazin-3-ylethynyl)-4-methyl-N-[4-[(4-methyl-1-piperazinyl)methyl]-3-(trifluoromethyl)phenyl]-benzamide], in test [6], the “AKT activity (Ser437 and Thr308)” value is “inhibited AKT activity”; the “Activity of PLCγ1” value is “completely inhibited”; the “phosphorylation of TIE2 and ABL” value is “decreased phosphorylation of TIE2 and ABL”. Moreover, in test [6] (500 nM Ponatinib for 1 hour), the “phosphorylation of TIE2 and c-ABL” value is “diminished phosphorylation of both TIE2 and c-ABL”. Further, in test [3], the inhibition at 20 µM stood at 50.8% and the IC50 was 0.89 ± 0.24 µM. The cell apoptosis in test [7] came to 25.43±4.67%. Besides, the inhibition at 20 µM in test [4] turned out to be 75.5%. In addition, the IC50 in test [4] (read-out: IC50 L914F) was found to be 0.42 ± 0.03 µM.

Consider `CO[C@H]1C[C@@H]2CC[C@@H](C)[C@@](O)(O2)C(=O)C(=O)N2CCCC[C@H]2C(=O)O[C@H]([C@H](C)C[C@@H]2CC[C@@H](O)[C@H](OC)C2)CC(=O)[C@H](C)/C=C(\C)[C@@H](O)[C@@H](OC)C(=O)[C@H](C)C[C@H](C)/C=C/C=C/C=C/1C` [Sirolimus, Rapamycin], for which, in test [8], the “G0/G1 phase cell population” value was 83.99±4.58%. The “phosphorylation of TIE2 and ABL” value in test [6] (100 nM Ponatinib, 10 nM rapamycin, 48 and 72 hours) was “no effect”. For the same compound, the inhibition at 20 µM in test [3] amounted to 30.3%; in test [4], 53.9%. In addition, the IC50 in test [3], in test [4] (read-out: IC50 L914F) and in test [4] (read-out: IC50 in HUVEC-TIE2-L914F) was under 0.03 µM in each case. For the same compound, in test [7] (100 nM Ponatinib, 10 nM rapamycin or combination, 72 hours, vehicle 7.89±1.71%), the cell apoptosis is recorded as 13.00±5.02%.
